Assay results from PubChem BioAssay (NCATS).
Inconclusive results, whose numbers are uncertain, are shown with a selection of clear calls. For part of these data: No potency is given beside an inconclusive call; the fits are too rough. Activity calls are given as the source filed them. Calls come from the whole dose curve; as a rule, active = well fitted curve in the direction sought with a large enough effect; inconclusive = small, poorly fitted or top-dose-only effect, or another doubt; inactive = no such curve, though single readings can be large; an effect the other way counts as inactive or inconclusive.

Assays:
[1] = tested on: Zika virus NS2B-NS3 protease (linked construct); experiment: Primary screen NINDS Rhodamine qHTS for Zika virus inhibitors (AID 1347160); conditions: purified NS2B-NS3 protease, Rhodamine110 substrate fluorescence; series mostly up to 112 µM; note: nearly all actives have a fitted effect of over 55% in size
Method in brief: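 Each compound, titrated, sat 15 min with 25 nM linked protease before 1.5 microM Rhodamine110 substrate went in. Fluorescence gain over the next 15 min, in pH 8.0 Tris with Tween 20, gave Hill-fitted curves.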

[2] = OV-KATE Cancer Cell Toxicity qHTS against the NCATS CANVASS Library (AID 1347345); conditions: OV-KATE cells viability, CellTiter-Glo luminescence, 72 h; series mostly up to 38.3 µM
Method in brief: (§1)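 In this cytotoxicity screen, 1000 cells per well rested 4 hours, then received compound (11 concentrations) for a 72-hour incubation; an ATP-dependent luminescent signal (CellTiter-Glo) was the endpoint.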

[3] = Panc-1005 Cancer Cell Toxicity qHTS against the NCATS CANVASS Library (AID 1347349); conditions: Panc-1005 viability, CellTiter-Glo luminescence, 72 h; series mostly up to 38.3 µM; note: nearly all actives have a fitted effect of over 60% in size
Method in brief: as §1

[4] = A2780 Cisplatin Sensitive Ovarian Cancer Cell Toxicity qHTS against the NCATS CANVASS Library (AID 1347353); conditions: A2780 ovarian cancer viability, ATPLite luminescence, 72 h; series mostly up to 46.1 µM; note: nearly all actives have a fitted effect of over 60% in size
Method in brief: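 Cisplatin-sensitive A2780 ovarian cells (750/well) received compound in 11 concentrations, and were incubated 72 h at 37 °C. ATP content was measured by ATPLite luminescence; bortezomib served as control.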

[5] = UWB1.289-WTBRCA1 Cancer Cell Toxicity qHTS against the NCATS CANVASS Library (AID 1347354); conditions: UWB1.289-WTBRCA1 viability, CellTiter-Glo luminescence, 72 h; series mostly up to 38.3 µM
Method in brief: (§2)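 Toxicity was measured as CellTiter-Glo luminescence after 72 h exposure to an 11-point compound series. Compound was added to 1000 cells/well 4 h after seeding.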

[6] = KB-8-5-11 Cancer Cell Toxicity qHTS against the NCATS CANVASS Library (AID 1347364); conditions: KB-8-5-11 MDR cells viability, CellTiter-Glo, 72 h; series mostly up to 46.1 µM; note: nearly all actives have a fitted effect of over 75% in size
Method in brief: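 Viability read as CellTiter-Glo luminescence after 72 h at 37 °C, 5% CO2. 11-point compound series on 500 KB-8-5-11 cells/well in DMEM/10% FBS. Follow-up plating included 1 uM tariquidar in the medium.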

[7] = qHTS for Antimalaria activity screened against the NCATS CANVASS Library (AID 1347380); note: nearly all actives have a fitted effect of over 40% in size; conditions: P. falciparum Dd2 growth, SYBR Green fluorescence, 72 h; series mostly up to 28.7 µM
Method in brief: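 SYBR Green fluorescence at 485/535 nm was read 18 hr after lysis. This followed a 72 hr incubation at 37C in 5% O2, 5% CO2 of Dd2-infected erythrocytes (0.3% parasitemia, 2.5% final hematocrit) with compounds titrated over 11 concentrations.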

[8] = qHTS for Activators of p53 Stress Response Pathway screened against the NCATS CANVASS Library (AID 1347388); conditions: p53RE-bla HCT-116, beta-lactamase reporter, 16 h; series mostly up to 46.1 µM
Method in brief: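 p53RE-bla HCT-116 cells (4000/well) were plated 5 h at 37C, exposed to compounds for 16 h at 37C over an 11-point concentration series, then loaded with CCF4 for 2 h at room temperature; 460/530 nm emission ratio read.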

[9] = qHTS for activators of Nrf2/ARE signaling pathway screened against the NCATS CANVASS Library (AID 1347391); conditions: ARE-bla HepG2, beta-lactamase reporter, 16 h; series mostly up to 46.1 µM; note: nearly all actives have a fitted effect of over 60% in size
Method in brief: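 Eleven-point qHTS, 16 h treatment of HepG2 cells carrying an ARE-driven beta-lactamase reporter; CCF4 ratio read (405 nm excitation, 460 and 530 nm emission), with CellTiter-Glo ATP luminescence for viability.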

[10] = qHTS for inhibitors of Wild type Zika virus screened against the NCATS CANVASS Library (AID 1347396); conditions: Vero cells, Zika virus CPE, CellTiter-Glo, 72 h; series mostly up to 45.9 µM
Method in brief: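 Vero 766 (African green monkey) cells, 1000 per well, attached overnight, then compounds were added in an 11-point series before wild-type Zika virus infection. After 72 h at 37C, cell viability was read as CellTiter Glo luminescence.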

[11] = HPAF-II Cancer Cell Toxicity qHTS against the NCATS CANVASS Library (AID 1347346); conditions: HPAF-II viability, CellTiter-Glo ATP luminescence, 72 h; series mostly up to 38.3 µM; note: nearly all actives have a fitted effect of over 55% in size
Method in brief: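 Cytotoxicity read-out was CellTiter-Glo luminescence after 72 h at 37 degrees C exposure of HPAF-II cells (1000/well) to compounds in an 11-point titration.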

[12] = UWB1.289 Cancer Cell Toxicity qHTS against the NCATS CANVASS Library (AID 1347347); conditions: UWB1.289 viability, CellTiter-Glo luminescence, 72 h; series mostly up to 38.3 µM; note: nearly all actives have a fitted effect of over 60% in size
Method in brief: as §1

[13] = SW1088 Cancer Cell Toxicity qHTS against the NCATS CANVASS Library (AID 1347350); conditions: SW1088 viability, CellTiter-Glo luminescence, 72 h; series mostly up to 38.3 µM; note: nearly all actives have a fitted effect of over 75% in size
Method in brief: as §1

[14] = HEK-293 Cancer Cell Toxicity qHTS against the NCATS CANVASS Library (AID 1347355); conditions: HEK-293 viability, CellTiter-Glo luminescence, 72 h; series mostly up to 46.1 µM; note: nearly all actives have a fitted effect of over 65% in size
Method in brief: as §2

[15] = Viability qHTS for inhibitors of the SERCaMP assay screened against the NCATS CANVASS Library (AID 1347400); conditions: SH-SY5Y SERCaMP cells viability, CellTiter-Glo, 48 h; series mostly up to 92.2 µM; note: nearly all actives have a fitted effect of over 70% in size
Method in brief: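 CellTiter-Glo luminescence measured cytotoxicity after 48 h at 37C of compound treatment (11-point series). Cells were SH-SY5Y-GLuc SERCaMP MJH297 derivatives, seeded at 1000 per well 4 h beforehand.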

[16] = U-118MG Cancer Cell Toxicity qHTS against the NCATS CANVASS Library (AID 1347351); conditions: U-118MG viability, CellTiter-Glo luminescence, 72 h; series mostly up to 38.3 µM
Method in brief: as §1

[17] = qHTS for Hypoxia signaling pathway (HIF-1) antagonists against the NCATS CANVASS Library (AID 1347374); conditions: HRE-bla ME-180 cells, HIF-1 beta-lactamase reporter, CoCl2; series mostly up to 38.3 µM; note: nearly all actives have a fitted effect of over 60% in size
Method in brief: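 Antagonism scored as loss of CoCl2-driven (60 uM stock added) HRE beta-lactamase signal, read by CCF4 FRET at 460/530 nm. Compounds were tested in an 11-point series on ME-180 reporter cells for 17 hrs at 37C, with parallel CellTiter-Glo cytotoxicity.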
Potency is the fitted concentration of half-maximal effect; tags give direction and shape of the fitted curve.

Row | Structure (SMILES) | Potency [1] | Potency [2] | Potency [3] | Potency [4] | Potency [5] | Potency [6] | Potency [7] | Potency [8] | Potency [9] | Potency [10] | Potency [11] | Potency [12] | Potency [13] | Potency [14] | Potency [15] | Potency [16] | Potency [17]
1 | CCC[C@@H](C)/C=C(\C)[C@H](O)[C@H](C)/C=C/CC[C@@H](O)[C@H](C)[C@H](O)[C@H](C)[C@H](O)[C@H](C)[C@H]1O[C@H]([C@H](C)C(=O)O)CC[C@@H]1C | active: 6.21 µM | active: 3.75 µM | active: 4.21 µM | inconclusive [cytotoxic, full curve] | active: 13.3 µM | active: 11.8 µM | active: 5.94 µM | inconclusive [activator, partial curve] | inconclusive [activator, single point] | inconclusive [inhibitor, full curve] | – | – | – | – | – | – | –
2 | CCC(=O)N[C@@H](C[C@H](C)C(Cl)(Cl)Cl)C(=O)N1C(=O)C=C(OC)[C@@H]1CC(C)C | inactive | – | – | – | – | inconclusive [cytotoxic, full curve, poor fit] | inactive | – | inconclusive [activator, partial curve] | inactive | inconclusive [cytotoxic, partial curve] | inactive | inconclusive [cytotoxic, partial curve, poor fit] | inconclusive [cytotoxic, single point] | inactive | – | –
3 | C=C1C(=O)O[C@H]2[C@H]1CCC(C)=C1CC[C@@](C)(O)[C@@H]12 | inconclusive [inhibitor, full curve] | – | – | active: 4.18 µM | inconclusive [cytotoxic, single point] | – | inconclusive [cytotoxic, full curve] | – | – | – | inconclusive [cytotoxic, single point] | active: 18.8 µM | – | active: 9.35 µM | active: 42.8 µM | inconclusive [cytotoxic, single point] | inconclusive [inhibitor, full curve]
